Where “and” joins values, the source holds several entries; their conditions need not be identical. Equal values may be shown once. In all, about 110,000 compounds went through this assay and about 230 (0.21%) showed an effect of 50% or more. Some of the results follow.
What follows are compounds tested against DPAP1 (Plasmodium falciparum, UniProt Q8IIJ9) (assay: primary screen, percent inhibition; read by cleavage of a fluorogenic dipeptide substrate; higher = more effect of the substance).
Design: species or system P. falciparum D10 trophozoite lysates; single well
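Further: 30 min substrate incubation versus DMSO and 10 µM JCP410 controls.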

Chain of DPAP1 (Q8IIJ9 whole entry, looked up): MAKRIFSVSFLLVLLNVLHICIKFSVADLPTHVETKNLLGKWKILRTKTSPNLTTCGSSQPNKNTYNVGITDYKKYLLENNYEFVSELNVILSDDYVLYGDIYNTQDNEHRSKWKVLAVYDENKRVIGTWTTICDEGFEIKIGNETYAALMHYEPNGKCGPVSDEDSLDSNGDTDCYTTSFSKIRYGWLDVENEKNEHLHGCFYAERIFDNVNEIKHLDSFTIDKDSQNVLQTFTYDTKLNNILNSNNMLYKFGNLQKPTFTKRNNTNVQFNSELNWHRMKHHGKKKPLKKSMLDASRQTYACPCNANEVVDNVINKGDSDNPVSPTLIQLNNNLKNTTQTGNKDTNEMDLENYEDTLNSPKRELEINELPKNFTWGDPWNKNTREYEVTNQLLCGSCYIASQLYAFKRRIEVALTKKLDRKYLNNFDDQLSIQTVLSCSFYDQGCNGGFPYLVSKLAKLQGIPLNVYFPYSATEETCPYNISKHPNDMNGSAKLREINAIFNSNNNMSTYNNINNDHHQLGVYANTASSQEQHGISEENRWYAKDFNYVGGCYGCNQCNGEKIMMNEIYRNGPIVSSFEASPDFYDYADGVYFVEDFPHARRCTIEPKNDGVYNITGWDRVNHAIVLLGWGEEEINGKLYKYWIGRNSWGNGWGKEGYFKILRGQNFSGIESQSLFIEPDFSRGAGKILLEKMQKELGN

SMILES	% Inhibition @ 10 uM
CC1CCN(C2=NN3C(=N)/C(=C\c4cccn4Cc4ccccc4)C(=O)N=C3S2)CC1	1.72%
CCOC(=O)C1CCN(Cc2ccc([N+](=O)[O-])cc2)CC1	-5.5%
CCOC(=O)c1c(C)oc2ccc(O)c(CN3CC4(C)CC3CC(C)(C)C4)c12 (centres unmarked)	-4.82%
Cc1cc(C)cc(Oc2nc3ccccn3c(=O)c2/C=C(\C#N)C(=O)NCc2ccco2)c1	0.101%
CCc1c(C)sc(NC(=O)CC(c2ccccc2)c2ccccc2)c1C(N)=O	-2.16% and 6.69%
CN(C)/C(=N\S(=O)(=O)c1ccc(Br)cc1)c1ccccc1	4.54%
Cc1nc2c(C(=O)NC(C)CCc3ccccc3)cnn2c(C)c1Cc1ccccc1 (centres unmarked)	-2.26%
OC1CCCCc2c1[nH]c1ccc(C3CCCCC3)cc21 (centres unmarked)	20.8%
CN1CCN(C(=O)CNS(=O)(=O)c2ccc(Br)cc2)CC1	-1.51%
CCOc1ccc(CCNC(=O)CCCc2nnc3n(CCC(C)C)c(=O)c4sccc4n23)cc1	-3.58%
CCOc1ccccc1CNC(C)(C)CO	1.02%
COc1ccc(-c2cc(C(=O)NCc3cn(C)nc3C)c3ccccc3n2)cc1OC	0.115%
COCCNC(=O)CCCn1c(SCc2ccccc2F)nc2c(sc3ccccc32)c1=O	11.2%
O=C(CN1Cc2ccccc2C1=O)NCC1CCN(Cc2ccc(F)cc2)CC1	-2.41%
C=CCN1C(=O)S/C(=C/c2ccc(N3CCOCC3)cc2)C1=O	2.49%
CCN(CC)Cc1cc2ccccc2c2c1COC2	2.62%
CCOc1ccc(CCNC(=O)CS(=O)Cc2nc(-c3cccc(C)c3)oc2C)cc1OCC (centres unmarked)	-4.71%
O=C(NCCN1CCOCC1)c1nc(-c2ccc(Cl)cc2)n2c1CCCCC2	2.36%
CC(C)C(=O)Nc1ccc(NC(=O)COc2ccccc2Cl)cc1	8.43%
C=CCN(C(C)=O)c1nc(-c2ccccc2)cs1	1.03%
CC(C)NC(=S)NC1(C)CCS(=O)(=O)C1 (centres unmarked)	0.884%
COc1ccc(-c2c(C)nn3c(O)c4c(nc23)CCC4)cc1	1.4%
Cc1nn(CC(=O)N2CCC(C)CC2)c(=O)c2cccn12	-10.2%
CC1CCN(C(=O)C2CC(c3ccccc3F)=NO2)CC1 (centres unmarked)	4.41%
O=C(NCCCN1CCOCC1)c1nn2c(C(F)(F)F)cc(-c3cccs3)nc2c1Cl	-7.15%

SMILES	% Inhibition @ 10 uM
CNC(=O)CN(CCc1ccccc1)S(=O)(=O)c1c(C)cc(C)cc1C	3.65%
CC(=O)C1=C(C)OC(N)=C(C#N)C1c1c(Cl)cccc1Cl (centres unmarked)	2.46%
O=C(NCc1ccccc1)N1CCn2c(nc3ccccc32)C1	2.34%
OC1CCN(Cc2ccccc2F)CC1	-1.77%
c1ccc(CCCN2CCN(Cc3ccccc3)CC2)cc1	-2%
Cc1c(CNCC2CCCO2)c(C(=O)O)c(C)n1Cc1ccc(F)cc1 (centres unmarked)	-3.67%
Cc1ccoc1C(=O)NCCNC(=O)c1occc1C	-1.6%
COc1cc(C)nc(N(Cc2ccccc2)S(=O)(=O)c2ccc(C)cc2)n1	5.03%
COc1ccc(NC(=O)CN(C)S(=O)(=O)c2cc(Cl)ccc2Cl)cc1	3.17%
COc1cc(CNC(C)(C)CO)ccc1OCc1ccccc1	-7.14%
COc1ccc(-n2cnc3cc(C(=O)NCc4ccccc4Cl)ccc32)cc1	5.85%
O=C(CCN1C(=O)c2cccc3cccc(c23)C1=O)NCCN1CCOCC1	-3.9%
Cc1cc(/C=C2\NC(=O)NC2=O)c(C)n1-c1cccnc1	-0.473%
COc1ccc(OC)c(NC(=O)CN(c2cc(C)ccc2OC)S(C)(=O)=O)c1	-4.13%
COc1ccc(N2CCN(C(=O)c3ccc(-n4nc(C)cc4C)cc3)CC2)cc1	-3.25%
Cc1cc(C)c2c(C)nn(C)c2n1	3.81%
COc1cccc(CN2CCN(C3CCC(C)CC3)CC2)c1OC (centres unmarked)	-4.69%
CCC(C)NS(=O)(=O)c1ccc2c(c1)Cc1cc(S(=O)(=O)NC(C)CC)ccc1-2 (centres unmarked)	1.27%
CCOc1ccc(-c2[nH]nc3c2C(c2ccc(OC)c(OC)c2)C(C#N)=C(N)O3)c(OCC)c1 (centres unmarked)	-6.58%
COc1ccc(OC)c(C(=O)c2ccc(C(=O)N3CCCCC3)cc2)c1	-2.32%
CCN(CC)C(=O)C1CCCN(Cc2ccc(Br)cc2)C1 (centres unmarked)	-1.77%
CCCc1cc2c(cc1OC)OCC(c1ccc3c(c1)OCCO3)C2=O (centres unmarked)	-2.59%
O=C(CN1Cc2ccccc2C1=O)N1CCc2ccccc2C1	0.297%
Cc1csc(NC(=O)C(C)N2Cc3ccccc3C2=O)n1 (centres unmarked)	-0.501%
COc1cccc(C(=O)Nc2ccc(N3CCN(C(=O)C(C)C)CC3)c(Cl)c2)c1	-1.43%

— PMC6919601, “Identification of Plasmodium dipeptidyl aminopeptidase allosteric inhibitors by high throughput screening” (PLoS ONE, 2019)
